Test results from US20020065213A1, “METHODS AND COMPOSITIONS FOR NONVIRAL GENE DELIVERY” (priority 1998, published 2002).

System: B16 cells, PPC-1 cells
Experiment: Effect on calcium phosphate, adenoviral and electroporation transfection in vitro
Assay type: cell-based
Experimental: B16 cells were electroporated with p4241 as per BioRad (Hercules, Calif.) instructions for the GenePulser II. Calcium phosphate transfections were performed as described in the manufacturer's instructions (Gibco BRL, Grand Island, N.Y.). Adenoviral infection of PPC-1 cells was performed as previously described (Graham and […], 1991).

fucoidan
adenoviral or electroporation methods of transfection in vitro: did not interfere
